# Data taken from the supplement of paper PMC8728848.
# This is one part of the list.
# B1: BC2L-A (Burkholderia cenocepacia), Q1BKJ8_BURCA (protein)
# chain: ADSQTSSNRAGEFSIPPNTDFRAIFFANAAEQQHIKLFIGDSQEPAAYHKLTTRDGPREATLNSGNGKIRFEVSVNGKPSATDARLAPINGKKSDGSPFTVNFGIVVSEDGHDSDYNDGIVVLQWPIG
# How the values were obtained:
# Assay in all cases: glycan array binding signal (z-score within array); higher = stronger binding
# Conditions in all cases: glycan notation: IUPAC condensed, linker removed
# [1] = target: Fuc(a1-2)[GalNAc(a1-3)]Gal(b1-3)GlcNAc(b1-2)Man(a1-3)[Fuc(a1-2)[GalNAc(a1-3)]Gal(b1-3)GlcNAc(b1-2)Man(a1-6)]Man(b1-4)GlcNAc(b1-4)[Fuc(a1-6)]GlcNAc
# In short: (§1)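 The Consortium for Functional Glycomics database supplied 3228 glycan arrays, of which those lacking an available protein sequence were dropped. The binding signal, a within-array Z-score, was averaged across arrays of the same protein sequence and across linkers. Negative scores can be read as non-binding.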
# [2] = target: Fuc(a1-2)[GalNAc(a1-3)]Gal(b1-3)GlcNAc(b1-3)GalNAc
# In short: as §1
# [3] = target: Fuc(a1-2)[GalNAc(a1-3)]Gal(b1-4)Glc
# In short: as §1
# [4] = target: Fuc(a1-2)[GalNAc(a1-3)]Gal(b1-4)GlcNAc
# In short: as §1
# [5] = target: Fuc(a1-2)[GalNAc(a1-3)]Gal(b1-4)GlcNAc(b1-2)Man(a1-3)[Fuc(a1-2)[GalNAc(a1-3)]Gal(b1-4)GlcNAc(b1-2)Man(a1-6)]Man(b1-4)GlcNAc(b1-4)GlcNAc
# In short: as §1
# [6] = target: Fuc(a1-2)[GalNAc(a1-3)]Gal(b1-4)GlcNAc(b1-2)Man(a1-3)[Fuc(a1-2)[GalNAc(a1-3)]Gal(b1-4)GlcNAc(b1-2)Man(a1-6)]Man(b1-4)GlcNAc(b1-4)[Fuc(a1-6)]GlcNAc
# In short: as §1
# [7] = target: Fuc(a1-2)[GalNAc(a1-3)]Gal(b1-4)GlcNAc(b1-2)Man(a1-3)[GalNAc(a1-3)[Fuc(a1-2)]Gal(b1-4)GlcNAc(b1-2)Man(a1-6)]Man(b1-4)GlcNAc(b1-4)GlcNAc
# In short: as §1
# [8] = target: Fuc(a1-2)[GalNAc(a1-3)]Gal(b1-4)GlcNAc(b1-3)Gal(b1-4)GlcNAc
# In short: as §1
# [9] = target: Fuc(a1-2)[GalNAc(a1-3)]Gal(b1-4)GlcNAc(b1-3)Gal(b1-4)GlcNAc(b1-3)Gal(b1-4)GlcNAc
# In short: as §1
# [10] = target: Fuc(a1-2)[GalNAc(a1-3)]Gal(b1-4)GlcNAc(b1-3)GalNAc
# In short: as §1
# [11] = target: Fuc(a1-2)[GalNAc(a1-3)]Gal(b1-4)[Fuc(a1-3)]GlcNAc
# In short: as §1
# [12] = target: Fuc(a1-2)[GalNAc(a1-3)]Gal(b1-4)[Fuc(a1-3)]GlcNAc(b1-3)GalNAc
# In short: as §1
# [13] = target: Fuc(a1-2)[GalNAc(a1-4)]Gal(b1-4)GlcNAc
# In short: as §1
# [14] = target: Fuc(a1-2)[GalNAc(b1-3)]Gal
# In short: as §1
# [15] = target: Fuc(a1-3)GlcNAc
# In short: as §1
# [16] = target: Fuc(a1-3)[Gal(b1-4)]Glc6S
# In short: as §1
# [17] = target: Fuc(a1-3)[Gal(b1-4)]GlcNAc
# In short: as §1
# [18] = target: Fuc(a1-3)[Gal(b1-4)]GlcNAc(b1-2)Man(a1-3)[Fuc(a1-3)[Gal(b1-4)]GlcNAc(b1-2)Man(a1-6)]Man(b1-4)GlcNAc(b1-4)GlcNAc
# In short: as §1
# [19] = target: Fuc(a1-3)[Gal(b1-4)]GlcNAc(b1-2)Man(a1-3)[Fuc(a1-3)[Gal(b1-4)]GlcNAc(b1-2)Man(a1-6)]Man(b1-4)GlcNAc(b1-4)[Fuc(a1-6)]GlcNAc
# In short: as §1
# [20] = target: Fuc(a1-3)[Gal(b1-4)]GlcNAc(b1-2)Man(a1-6)[Gal(b1-4)GlcNAc(b1-2)Man(a1-3)]Man(b1-4)GlcNAc(b1-4)GlcNAc
# In short: as §1
# [21] = target: Fuc(a1-3)[Gal(b1-4)]GlcNAc(b1-3)Gal(b1-3)[Fuc(a1-4)]GlcNAc
# In short: as §1
# [22] = target: Fuc(a1-3)[Gal(b1-4)]GlcNAc(b1-3)GalNAc
# In short: as §1
# [23] = target: Fuc(a1-3)[Gal(b1-4)]GlcNAc(b1-4)Gal(b1-4)[Fuc(a1-3)]GlcNAc
# In short: as §1
# [24] = target: Fuc(a1-3)[Gal(b1-4)]GlcNAc(b1-4)Gal(b1-4)[Fuc(a1-3)]GlcNAc(b1-4)Gal(b1-4)[Fuc(a1-3)]GlcNAc
# In short: as §1
# [25] = target: Fuc(a1-3)[Gal(b1-4)]GlcNAc(b1-6)GalNAc
# In short: as §1
# [26] = target: Fuc(a1-3)[Gal(b1-4)]GlcNAc(b1-6)[Gal(b1-3)GlcNAc(b1-3)]Gal(b1-4)Glc
# In short: as §1
# [27] = target: Fuc(a1-3)[Gal(b1-4)]GlcNAc(b1-6)[Neu5Ac(a2-3)Gal(b1-3)]GalNAc
# In short: as §1
# [28] = target: Fuc(a1-3)[Gal(b1-4)]GlcNAc6S
# In short: as §1
# [29] = target: Fuc(a1-3)[Gal3S(b1-4)]Glc6S
# In short: as §1
# [30] = target: Fuc(a1-3)[Gal3S(b1-4)]GlcNAc
# In short: as §1
# [31] = target: Fuc(a1-3)[Gal3S(b1-4)]GlcNAc6S
# In short: as §1
# [32] = target: Fuc(a1-3)[GalNAc(b1-4)]GlcNAc
# In short: as §1
# [33] = target: Fuc(a1-3)[Neu5Ac(a2-3)]Gal(b1-4)GlcNAc(b1-3)GalNAc
# In short: as §1
# [34] = target: Fuc(a1-4)GlcNAc
# In short: as §1
# [35] = target: Fuc(b1-3)GlcNAc
# In short: as §1
# [36] = target: Gal(a1-2)Gal
# In short: as §1
# [37] = target: Gal(a1-3)Gal
# In short: as §1
# [38] = target: Gal(a1-3)Gal(b1-3)GlcNAc
# In short: as §1
# [39] = target: Gal(a1-3)Gal(b1-3)GlcNAc(b1-2)Man(a1-3)[Gal(a1-3)Gal(b1-3)GlcNAc(b1-2)Man(a1-6)]Man(b1-4)GlcNAc(b1-4)GlcNAc
# In short: as §1
# [40] = target: Gal(a1-3)Gal(b1-3)GlcNAc(b1-3)GalNAc
# In short: as §1
# [41] = target: Gal(a1-3)Gal(b1-3)[Fuc(a1-4)]GlcNAc(b1-2)Man(a1-3)[Gal(a1-3)Gal(b1-3)[Fuc(a1-4)]GlcNAc(b1-2)Man(a1-6)]Man(b1-4)GlcNAc(b1-4)GlcNAc
# In short: as §1
# [42] = target: Gal(a1-3)Gal(b1-4)Glc
# In short: as §1
# [43] = target: Gal(a1-3)Gal(b1-4)GlcNAc
# In short: as §1
# [44] = target: Gal(a1-3)Gal(b1-4)GlcNAc(b1-3)GalNAc
# In short: as §1
# [45] = target: Gal(a1-3)Gal(b1-4)[Fuc(a1-3)]GlcNAc
# In short: as §1
binder,measurement,setting,value
B1,glycan array binding signal (z-score),[1],1.18
same,glycan array binding signal (z-score),[2],-0.217
same,glycan array binding signal (z-score),[3],-0.292
same,glycan array binding signal (z-score),[4],-0.288
same,glycan array binding signal (z-score),[5],-0.165
same,glycan array binding signal (z-score),[6],0.553
same,glycan array binding signal (z-score),[7],-0.195
same,glycan array binding signal (z-score),[8],-0.296
same,glycan array binding signal (z-score),[9],-0.235
same,glycan array binding signal (z-score),[10],-0.218
same,glycan array binding signal (z-score),[11],-0.277
same,glycan array binding signal (z-score),[12],-0.215
same,glycan array binding signal (z-score),[13],-0.235
same,glycan array binding signal (z-score),[14],-0.29
same,glycan array binding signal (z-score),[15],-0.061
same,glycan array binding signal (z-score),[16],-0.234
same,glycan array binding signal (z-score),[17],-0.285
same,glycan array binding signal (z-score),[18],-0.263
same,glycan array binding signal (z-score),[19],-0.217
same,glycan array binding signal (z-score),[20],-0.36
same,glycan array binding signal (z-score),[21],0.01
same,glycan array binding signal (z-score),[22],-0.218
same,glycan array binding signal (z-score),[23],-0.106
same,glycan array binding signal (z-score),[24],-0.276
same,glycan array binding signal (z-score),[25],-0.219
same,glycan array binding signal (z-score),[26],-0.214
same,glycan array binding signal (z-score),[27],-0.209
same,glycan array binding signal (z-score),[28],-0.298
same,glycan array binding signal (z-score),[29],0.898
same,glycan array binding signal (z-score),[30],-0.317
same,glycan array binding signal (z-score),[31],-0.295
same,glycan array binding signal (z-score),[32],-0.263
same,glycan array binding signal (z-score),[33],-0.178
same,glycan array binding signal (z-score),[34],0.092
same,glycan array binding signal (z-score),[35],-0.287
same,glycan array binding signal (z-score),[36],-0.29
same,glycan array binding signal (z-score),[37],-0.175
same,glycan array binding signal (z-score),[38],-0.284
same,glycan array binding signal (z-score),[39],-0.186
same,glycan array binding signal (z-score),[40],-0.219
same,glycan array binding signal (z-score),[41],0.042
same,glycan array binding signal (z-score),[42],-0.241
same,glycan array binding signal (z-score),[43],-0.291
same,glycan array binding signal (z-score),[44],-0.221
same,glycan array binding signal (z-score),[45],-0.292
